PMC4336329 (PLoS ONE, 2015)
Among all 310,000 compounds or so, about 2,200 (0.71%) showed an effect of 50% or more. The effect is printed as a negative number. This is one part of the list.

target: human ether-à-go-go-related gene (hERG) potassium channel (human, UniProt Q12809); test: primary screen, population patch clamp on CHO cells stably expressing hERG
Sequence (Q12809 whole entry, looked up): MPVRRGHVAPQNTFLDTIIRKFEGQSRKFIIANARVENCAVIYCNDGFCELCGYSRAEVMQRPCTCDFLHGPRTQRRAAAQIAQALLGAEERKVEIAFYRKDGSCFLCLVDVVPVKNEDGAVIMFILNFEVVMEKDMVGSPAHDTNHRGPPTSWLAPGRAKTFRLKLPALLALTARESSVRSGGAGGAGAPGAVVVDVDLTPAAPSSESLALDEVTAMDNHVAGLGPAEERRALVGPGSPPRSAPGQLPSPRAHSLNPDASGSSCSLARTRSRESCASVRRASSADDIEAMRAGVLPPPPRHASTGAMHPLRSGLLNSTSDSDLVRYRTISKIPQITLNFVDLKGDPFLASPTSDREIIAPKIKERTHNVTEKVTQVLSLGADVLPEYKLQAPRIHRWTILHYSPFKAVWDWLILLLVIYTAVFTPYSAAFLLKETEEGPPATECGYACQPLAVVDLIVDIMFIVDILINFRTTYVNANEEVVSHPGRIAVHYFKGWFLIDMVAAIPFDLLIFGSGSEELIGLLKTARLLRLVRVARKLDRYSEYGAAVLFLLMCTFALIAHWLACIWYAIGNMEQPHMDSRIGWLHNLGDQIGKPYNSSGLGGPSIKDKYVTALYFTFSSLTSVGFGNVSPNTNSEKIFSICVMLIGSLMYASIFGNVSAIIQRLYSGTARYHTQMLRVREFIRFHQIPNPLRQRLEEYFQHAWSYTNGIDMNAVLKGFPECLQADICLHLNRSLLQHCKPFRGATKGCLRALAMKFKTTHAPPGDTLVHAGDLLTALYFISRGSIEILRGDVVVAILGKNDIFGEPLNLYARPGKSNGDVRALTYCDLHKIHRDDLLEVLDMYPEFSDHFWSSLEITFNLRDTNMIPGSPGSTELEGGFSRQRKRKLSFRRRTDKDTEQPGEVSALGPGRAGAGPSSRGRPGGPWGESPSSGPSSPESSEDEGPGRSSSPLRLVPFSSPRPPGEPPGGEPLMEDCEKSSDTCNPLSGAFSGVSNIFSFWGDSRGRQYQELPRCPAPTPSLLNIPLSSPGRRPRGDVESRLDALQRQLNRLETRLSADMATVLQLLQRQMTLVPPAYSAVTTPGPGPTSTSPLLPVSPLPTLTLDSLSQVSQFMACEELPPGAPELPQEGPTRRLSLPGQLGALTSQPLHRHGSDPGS

Structure (SMILES) | hERG current change (%, negative = inhibition) at 1uM [%]
CN1C(=O)/C(=C/c2ccc(C(=O)NC3CCCC3)cc2)Oc2ccccc21 | 20.1
O=C(Nc1ccc(Br)cc1F)c1ccc2c(c1)N(Cc1ccccc1)C(=O)CS2=O (stereo not drawn) | 7.73
Cc1ccc(-c2nc(C)sc2CC(=O)OCC(=O)Nc2ccc(F)c(Cl)c2)cc1 | 4.59
CCOCCc1nnc(NC(=O)Cc2ccccc2)s1 | 6.58
CCOc1ccccc1-c1noc(CCC(=O)Nc2cccnc2)n1 | 4.72
Cc1nn(Cc2ccccc2)c(N)c1C#N | 8.66
CCCCNc1nc2c(c(=O)n(C)c(=O)n2C)n1CCC | 15.3
CC(=O)NCc1ccc(-c2csc(-c3cccs3)n2)cc1 | 0.835
CCN(Cc1ccccc1)C(=O)CN1C(=O)c2ccccc2S1(=O)=O | 3.6
CN(C)/C=C/C(=O)/C=C/c1ccc(Cl)cc1Cl | 5.3
COc1ccc(Cl)cc1NC(=O)CCNS(=O)(=O)c1cccc2nonc12 | 11.8
O=c1cc(-c2ccccc2)nc(N2CCCCC2)[nH]1 | 5.54
CN(C)S(=O)(=O)c1ccc2nc(NC(=O)c3cccs3)sc2c1 | 1.11
Cc1nnc(-c2cnn(-c3ccccc3)c2N)n1Cc1ccc(F)cc1 | -4.86
CC(C)CCN(C(=S)Nc1cccc(C(F)(F)F)c1)C(C)c1ccccn1 (stereo not drawn) | 10.7
Cc1nn(-c2ccccc2)c(Cl)c1/C=N/Nc1ccc(S(=O)(=O)Nc2ccccc2C(=O)O)cc1[N+](=O)[O-] | 5.98
CSc1nc(-c2ccc(C)cc2)nc(N)c1C#N | 16.3
O=C(CN1CCN(S(=O)(=O)c2cccc(F)c2)CC1)NCC1(N2CCOCC2)CCCCC1 | 3.95
Cc1ccc(C(C(=O)NCC2CCCO2)N(Cc2ccccc2)C(=O)c2ccc(-c3ccccc3)[nH]2)o1 (stereo not drawn) | 6.96
C#CCOCCOCCOCCNc1nc(N2CCN(C(=O)[C@H](Cc3ccc(O)cc3)n3cc([C@@H](N)C(C)CC)nn3)CC2)nc(N2CCN(C(=O)[C@H](CCCCN)n3cc([C@@H](N)CC(C)C)nn3)CC2)n1.Cl (stereo partly drawn) | 9.13
CCCN(CCC)C(=O)c1ccc2nc(-c3ccc(OC)c(OC)c3)c(-c3ccc(OC)c(OC)c3)nc2c1 | 3.73
c1ccc(-c2nnc3n2CCCC3)cc1 | 8.13

Structure (SMILES) | hERG current change (%, negative = inhibition) at 1uM [%]
Cc1cccc(NC(=O)COc2cccc3c2CCN(C)C3=O)c1 | 8.69
Oc1ccc(/C=N/Nc2cccc(Cl)n2)c(O)c1 | 12.7
CCOc1ccc(CCNC(=O)c2ccccc2OCc2c(C)noc2C)cc1OCC | -0.854
CCc1ccc2c(c1)C(C)=CC(C)(C)N2 | 12.1
CC(=NCc1ccc2c(c1)OCO2)C1=C(O)c2ccccc2C1=O | 9.87
CC(C(=O)N1CCc2ccccc21)n1cccc1 (stereo not drawn) | 13.6
O=C(NN1C(=O)/C(=C\c2cccnc2)SC1=S)c1ccco1 | 6.88
Cc1ccc2c(c1Cl)NC(C(=O)O)C1CC(Sc3ccccc3[N+](=O)[O-])C(Cl)C21 (stereo not drawn) | -3.46
Cc1cc(N2C(=O)C(O)=C(C(=O)c3cc4ccccc4o3)C2c2cccs2)no1 (stereo not drawn) | 18.8
COc1ccccc1CNC(=O)C(C)Sc1ccc(C)cc1 (stereo not drawn) | 7.45
c1ccc2c(OCCCCN3CCCC3)cccc2c1 | 10.3
COc1ccc(C(=O)NCCNc2ccc([N+](=O)[O-])cc2)cc1OC | 6.29
COc1ccc(Sc2ccc(/C=C3\C(=O)NN(c4ccccc4)C3=O)o2)cc1 | 9.78
CCn1nc(C)c(CNCc2cn[nH]c2-c2cc3ccccc3o2)c1C | 24.1
O=C(NCCc1ccccc1)C1CCN(C2CCN(Cc3ccco3)CC2)CC1 | -25.2
O=C(O)c1ccc(N/C(=N\S(=O)(=O)c2ccc(Cl)cc2)c2ccccc2)cc1 | 1.79
CCCOc1ccc(-c2nnc(-c3ccco3)o2)cc1 | 6.67
COc1ccccc1CN1[C@@H](CC(C)=O)c2cc(C(F)(F)F)ccc2S1(=O)=O | 8.57
Cc1ccc(C(=O)N(C)CC(=O)Nc2cccc(C)c2C)o1 | 8.8
Cc1noc(C)c1COc1ccc(C(=O)O)cc1 | 16.5
Cc1nn(-c2ccccc2)c(C)c1NC(=O)COC(=O)C1CC(=O)N(CCc2ccccc2)C1 (stereo not drawn) | 9.5
C/C(CC(=O)NCc1ccco1)=N\NC(=O)Cc1ccccc1 | 12.5

Structure (SMILES) | hERG current change (%, negative = inhibition) at 1uM [%]
CCOC(=O)C1(CC2CCCCO2)CCN(Cc2nccn2-c2cccc(C)c2)CC1 (stereo not drawn) | -1.48
C=CCNC(=S)NNC(=O)c1csc(C)c1CC | 4.18
CCOC(=O)c1sc(=NC(=O)C2CC2)n(C)c1C | 4.22
Cc1cccc(NC2=CC(=O)CC(C)(C)C2)c1C | 12
CC(C)[C@H](NC(N)=O)C(=O)NNC(=O)COc1cccc(C(F)(F)F)c1 | 6.49
Cc1onc(-c2c(Cl)cccc2Cl)c1C(=O)N1CCSCC1 | -2.27
CCc1ccc(N(CC(=O)Nc2nc3ccc(C)cc3s2)S(=O)(=O)c2c(C)noc2C)cc1 | 7.99
COc1ccc(CN2CCOCCOCCOCCOCCOCC2)cc1 | 7.46
COc1cc(OC)cc(C(=O)OCC(=O)NC(C)CCc2ccccc2)c1 (stereo not drawn) | 18.2
CCCc1cc(N2CCOCC2)n2ncc(-c3ccccc3)c2n1 | 14.7
CCOC(=O)C1=C(O)/C(=C/c2ccc(OCC(=O)O)c(OC)c2)SC1=Nc1ccc(OCC)cc1 | 5.5
O=S1(=O)NC(c2ccccc2)CC(CC2CCCCC2)O1 (stereo not drawn) | -3.18
CC(=O)Nc1ccc2c(c1)C(=O)c1ccccc1C2=O | 16.3
COc1ccc(-c2nn(-c3ccccc3)cc2/C=N/O)cc1 | 14.2
COC(=O)[C@@]1(Cc2ccc(F)cc2)[C@H]2c3cc(C(=O)N(C)C)n(Cc4ccc(OC)c(OC)c4)c3C[C@H]2CN1C(=O)c1ccccc1 | 12.4
CCN(c1ccccc1)S(=O)(=O)c1ccc2[nH]c(=O)[nH]c2c1 | 8.82
CC(C)c1ccc(CNC(=O)C(=O)NCC2CCCO2)cc1 (stereo not drawn) | 8.65
COc1cccc(/C=N/NC(=O)CC(=O)NCCc2ccc(OC)c(OC)c2)c1 | -0.183
COc1ccc(C(=O)C2CCCN(C(=O)C3CCOCC3)C2)c(C)c1 (stereo not drawn) | 21.3
O=C(N/N=C/c1c(F)cccc1Cl)C(=O)N1CCCCCC1 | 14.4
CCOC(=O)c1cc(-c2ccccc2C)nn1Cc1cc(CC)no1 | 7.04
CCn1c2ccccc2c2cnc(N=CN(C)C)c(C#N)c21 | 9

Structure (SMILES) | hERG current change (%, negative = inhibition) at 1uM [%]
CC1(C)CC(=O)C(CS(=O)(=O)c2ccccc2)=C(Cl)C1 | 8.32
Cc1nn(CCCC(=O)NCc2ccc(F)cc2)c(C)c1[N+](=O)[O-] | -6
Cc1ccccc1OCc1n[nH]c(=S)n1Cc1ccccc1 | 13.3
Cc1cccc(NC(=S)Nc2cccc(C)n2)n1 | 6.22
COCc1cc(C)nc(OCC(=O)N/N=C/c2ccc(-c3cc([N+](=O)[O-])ccc3Cl)o2)c1C#N | 6.66
Cc1cc(NC(=O)CCC(=O)N(CCC(C)C)C(C(=O)NCC2CCCO2)c2ccccc2C)no1 (stereo not drawn) | 12
COc1ccc(Nc2cccccc2=O)cc1 | 5.53
CN(C)c1ccc(/C=N/Nc2cccc(C(=O)O)c2)cc1 | 19.1
Cc1nc(/C=C\C(=O)O)c2cc(C)oc2n1 | 13
CCOC(=O)CSc1ncnc2c1sc1nc(N3CCOCC3)c3c(c12)CCCC3 | 21.5
CC(=O)c1c(C)[nH]c(C(=O)OCC(=O)Nc2nnc(-c3ccccc3)o2)c1C | 12.1
O=C(Cn1nc(-c2ccccc2)nc1-c1ccccc1)OC1CCCCC1 | 12.7
CN1C(=O)C2C=CC1C1C(=O)N(c3ccccc3)C(=O)C21 (stereo not drawn) | 17.1
CCN1C(=O)c2ccc(C(=O)O)cc2C1=O | 11.5
O=C(Cn1nnc2ccccc2c1=O)Nc1ccc(S(=O)(=O)N2CCOCC2)cc1 | 4.48
Cc1cc(C(=O)COC(=O)c2ccc(CO)cc2)c(C)n1CC1COc2ccccc2O1 (stereo not drawn) | -6.58
Cc1ccc(NC(=O)CCC(=O)c2ccc(Cl)s2)nc1 | 8.77
CC(C)c1ccc(NC2CCCN(C(=O)c3cccs3)C2)cc1 (stereo not drawn) | 7.21
COCCn1c(N)c(Sc2ccc(Cl)cc2)c(=O)[nH]c1=O | 9.92
N#CCCN(CCC#N)S(=O)(=O)c1ccc(C(=O)Nc2nc(-c3ccccc3)c(C(=O)c3ccccc3)s2)cc1 | 3.88
O=C(C1CCN(S(=O)(=O)c2cccnc2)CC1)N1CCN(c2ccc(Cl)cc2)CC1 | -10.6
